Laboratory results: US9975852B2, “Quinoline sulfonyl derivatives and uses thereof” (Health Sciences North Research Institute, priority 2013, dated 2018)

Legend:
MCF10A = test: SRB antiproliferative assay, MCF10A non-cancer breast cells; assay type: cell-based; conditions: Homo sapiens, MCF-10A
Description: (§1) Antiproliferative effects were determined by a sulforhodamine B (SRB) based protocol. For a typical screening experiment, 5,000-10,000 cells were inoculated into 100 μl medium per well of a 96-well microtiter plate as described previously. […] Some of the sample wells were fixed with 25 μl of 50% trichloroacetic acid (TCA) as a control of the cell population for each cell line at the time of drug addition (Tz). An aliquot of the frozen stock was thawed and diluted to the desired final maximum test-concentration with complete medium. Two to ten-fold serial dilutions were made to provide a total of seven drug concentrations (and a control [C]). Following addition of drugs, the culture plate was incubated for additional 48 h. Cells were fixed in situ by slowly adding 25 μl of ice-cold 50% (w/v) TCA (final concentration, 10% TCA), and were then incubated for 60 min at 4° C. […] The relative growth rate (%) was calculated for each of the compound concentrations according to the following formula: (Ti−Tz)/(C−Tz)×100 In the formula, time zero (Tz), control growth (C), and OD for different concentration of tested compounds (Ti). […] Values were calculated for each of these parameters if the level of activity was reached. However, if the effect was not reached or was exceeded, the value for that parameter was expressed as greater or less than the maximum or minimum concentration tested. […]

HeLa S3 cells = test: Flow cytometry, cell death and cell cycle of synchronized HeLa S3 cells; assay type: cell-based
Description: The synchronization at the G1/S border (more accurately at the beginning of S phase) was achieved by double thymidine block (DT). Briefly, exponentially growing cells are treated with 2.0 mM thymidine for 18 hours, followed by incubation for 11 hours in drug-free complete medium, by which time most cells are at mid-late G1 phase. The cells are then incubated for another 14 hours in 2.0 mM thymidine to arrest them at the G1/S border. To arrest cells at the G2/M phase, cells were maintained for 18 hours in complete medium containing nocodazole (50 ng/ml). Both these synchronization are reversible.
Under the experimental conditions, some of the cells were still stuck at G2/M until 8 hour post-drug treatment. “Asynchr” denotes asynchronous cells. 0 hour is the end of nocodazole treatment (i.e., 18 hours in 50 ng/ml nocodazole). At 0 hour, cells were released into complete medium in the absence (control) or presence of 5 μM VR-23 for 2, 4, or 8 hours as indicated. […] Extracts prepared from HeLa S3 cells treated with VR-23 in early-S phase (0 hour post double thymidine treatment), G2/M (arrested by nocodazole), or late G1 (6 hour post nocodazole) were subjected to Western blotting with anti-PARP1 antibody to detect proteins associated with apoptotic activities.
Evaluation of apoptosis in VR-23 treated and untreated control cells (FIG. 8). Treatment of cells in late G1 with VR-23 delayed their progression into S phase. HeLa S3 cells arrested in G2-M phase by nocodazole (50 ng/ml, 18 hours) were incubated in drug-free complete medium for 2, 4 or 6 hours (numbers in brackets), followed by incubation for 2 or 6 hours (+h) in the absence (control) (FIG. 8A) or presence (FIG. 8B) of 10 μM VR-23. […] By (6)+6 hours, most of the control cells already progressed into S phase, but VR-23-treated cells were still in G1 (long and short arrows, respectively). […] Under normal growth conditions, cyclin E expression peaks in late G1 and rapidly levels off as a cell enters S phase, at which time cyclin A expression rapidly increases. […]

[1] = Serum ALT liver toxicity, CD-1 mice
MDA-MB231 = test: SRB antiproliferative assay, MDA-MB231; assay type: cell-based; conditions: Homo sapiens
Description: as §1

[2] = test system: proteasome activity in 184B5 non-cancer cells; test: Proteasome activity in 184B5 non-cancer cells; assay type: cell-based, human; conditions: 1 μM VR-23; compared to MCF7 cancer cells
Description: Exponentially growing HeLa S3 cells were plated on 96-well plates. After overnight incubation, the cells were treated with different concentrations of drugs for 6 hours or left untreated (control). At the end of 6 hours, proteasomes were extracted in 0.5% NP40 buffer, and equal amounts of samples were incubated with 25 μM of fluorogenic substrates purchased from Boston Biochem (Cambridge Mass.). (LRR-specific for trypsin-like activity, LLE-specific for caspase-like activity and SUVY-specific for chymotrypsin like activity) in black-bottom 96-well plates at 37° C. Fluorescence was monitored every 5 min at the wavelength of 360 nm (excitation) and 480 nm (emission). Chymotrypsin activity was also determined by a kit-based method (similar to described above) purchased from Caymen Biochem (Ann Arbor, Mich.), using a fluorogenic substrate specific for chymotrypsin activity.

[3] = test system: breast cancer cell lines vs matching non-cancer breast epithelial cell lines; test: Cancer versus non-cancer selectivity, in vitro breast model; assay type: cell-based, human
Description: Antiproliferative effects were determined by a sulforhodamine B (SRB) based protocol. For a typical screening experiment, 5,000-10,000 cells were inoculated into 100 μl medium per well of a 96-well microtiter plate as described previously. Briefly, after the inoculation, the microtiter plate was incubated at 37° C., 5% CO2, 95% air and 100% relative humidity for 24 h, prior to addition of experimental drugs. Some of the sample wells were fixed with 25 μl of 50% trichloroacetic acid (TCA) as a control of the cell population for each cell line at the time of drug addition (Tz). An aliquot of the frozen stock was thawed and diluted to the desired final maximum test-concentration with complete medium. Two to ten-fold serial dilutions were made to provide a total of seven drug concentrations (and a control [C]). Following addition of drugs, the culture plate was incubated for additional 48 h. Cells were fixed in situ by slowly adding 25 μl of ice-cold 50% (w/v) TCA (final concentration, 10% TCA), and were then incubated for 60 min at 4° C. The supernatant was discarded, and the plate was washed five times with tap water, followed by air-dry. […] The cells “stained” with SRB were solubilized with 10 mM trizma base, and the absorbance was read on an automated plate reader at a wavelength of 515-564 nm. The relative growth rate (%) was calculated for each of the compound concentrations according to the following formula: (Ti−Tz)/(C−Tz)×100 In the formula, time zero (Tz), control growth (C), and OD for different concentration of tested compounds (Ti). […] Values were calculated for each of these parameters if the level of activity was reached. However, if the effect was not reached or was exceeded, the value for that parameter was expressed as greater or less than the maximum or minimum concentration tested. […]
Antiproliferative activity of VR-23 was evaluated on a variety of different cell lines, alone or in combination with Bortezomib, by way of SRBSRB or clonogenic assays. […]

U87MG brain cancer cells = test: Clonogenic assay, U87MG brain cancer cells; assay type: cell-based
Description: (§2) The clonogenic assay was carried out as described in Santi and Lee (2011).^11

MCF10A non-cancer cells [4] = test system: MCF10A non-cancer cells
Description: as §2

MCF7 cells = test: Microscopy of microtubule organization, MCF7 cells; assay type: cell-based, human; conditions: VR-23 10 μM, asynchronous MCF7
Source text: All immunocytochemistry experiments were visualized by confocal microscopy using a Zeiss 510 Meta laser scanning microscope (Carl Zeiss) equipped with a 63× objective lens, unless otherwise specified herein. Three lasers were utilized for excitation with the following band pass filter settings used for detection: Argon 488 nm (band pass 505-530), HeNe 543 nm (long pass 560) and 633 nm (long pass 650). All images were captured and analyzed using LSM 510 software included with the microscope (LSM Image Examiner™, Carl Zeiss).
MCF7 cells treated with VR-23 contained multiple microtubule organization centers (FIG. 6). Asynchronous MCF7 cells were incubated in the absence (Sham control) or presence of VR-23 (10 μM).

MCF10A non-cancer cells [5] = conditions: 8 μM VR-23
[6] = ratio cancer vs non-cancer line

In the case of `O=[N+]([O-])c1ccc(S(=O)(=O)N2CCN(c3ccnc4cc(Cl)ccc34)CC2)c([N+](=O)[O-])c1` [Compound 1, 7-Chloro-4-(4-(2,4-dinitrophenylsulfonyl)piperazin-1-yl)quinoline], the ALT (ATH490 mice) is reported as 46.63 ± 6.16 U/L, the AST (ATH490 mice) is reported as 62.52 ± 8.50 U/L and the “Liver toxicity by ratio of ALT and AST” value (ATH490 mice, 30 mg/kg) is reported as “did not cause any significant liver toxicity”. For the same compound, the “Ratio (AST/ALT)” value (mouse, in vivo) was 1.34, the IC50 (MCF10A) was 12.3 ± 1 µM and the “Cell death of cells arrested at G2-M by nocodazole” value (HeLa S3 cells; 5 μM VR-23, within 4 hours) was “caused massive cell death”. The “Cell cycle progression from late G1 to S phase” value (HeLa S3 cells; 10 μM VR-23, (6)+6 hours post nocodazole) was “slowed down cell cycle progression from late G1 to S phase”, the “Cells in G1” value (HeLa S3 cells; 10 μM VR-23 for 6 hours from 6 hours post-DT) was ~30% and the ALT ([1]; 1 mg/kg) was 6.40 ± 1.82 IU/L blood. For the same compound, the ALT ([1]; 5 mg/kg) was 6.81 ± 0.32 IU/L blood, the ALT ([1]; 20 mg/kg) was 16.19 ± 4.79 IU/L blood and the “Liver toxicity by level of serum ALT” value ([1]; up to 20 mg/kg) was “did not cause any significant liver toxicity”. For the same compound, the IC50 (MDA-MB231; MDA-MB-231) was 3.4 ± 0.1 µM, the GI50 (MDA-MB231; MDA-MB-231, 48 h) was 3.41 ± 0.1 µM and the “Proteasome inhibition in 184B5 cells” value [2] was “not pronounced”. The “Killing of cancer cells more effectively than matching non-cancer cells” value ([3]; in vitro breast (cancer) model) was 2.6-17.6 fold, the “Inhibitory effect, MDA-MB231 vs 184B5” value [3, 6] was 2.6 times and the “Inhibitory effect, MDA-MB468 vs MCF10A” value [3, 6] was 17.6 times. For the same compound, the IC50 (U87MG brain cancer cells; Homo sapiens, U-87 MG, read-out: IC50 U87MG) was 0.7 ± 0.5 µM, the “# Colonies (Experiment #1)” value (U87MG brain cancer cells; VR-23, 0.5 μM) was 0 and the “# Colonies (Experiment #1)” value (U87MG brain cancer cells; VR-23, 2.5 μM) was 0. The “# Colonies (Experiment #2)” value (U87MG brain cancer cells; VR-23, 2.5 μM) was 0, the “Effectiveness relative to temozolomide on U87MG brain cancer cells” value (U87MG brain cancer cells; in vitro) was “at least 20 times” and the Colony counts (MCF10A non-cancer cells [4]; 0.5-8.0 μM VR-23, 14 days) was “colony counts were not substantially different”. For the same compound, the “Toxicity to MCF10A non-cancer cells” value (MCF10A non-cancer cells [4]; up to 8 μM) was “not notably toxic”, the “Cells with multiple microtubule organization centers” value (MCF7 cells) was ~33% and the “Apoptosis in MCF10A” value (MCF10A non-cancer cells [5]) was “did not induce any apoptosis”.

Read-outs that look alike come from different tables or passages of the source.
